Source: PMC4336329 (PLoS ONE, 2015)
The whole screen tested about 310,000 compounds, of which about 14,000 (4.5%) showed an effect of 50% or more. Effects have a minus sign here. The list shows a part of the results.

Molecular target: human ether-à-go-go-related gene (hERG) potassium channel (human, UniProt Q12809)
Test: primary screen, population patch clamp on CHO cells stably expressing hERG
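Further: peak tail current of the secondary pulse compared with the same well before compound.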

Chain of human ether-à-go-go-related gene (hERG) potassium channel (Q12809 whole entry, looked up): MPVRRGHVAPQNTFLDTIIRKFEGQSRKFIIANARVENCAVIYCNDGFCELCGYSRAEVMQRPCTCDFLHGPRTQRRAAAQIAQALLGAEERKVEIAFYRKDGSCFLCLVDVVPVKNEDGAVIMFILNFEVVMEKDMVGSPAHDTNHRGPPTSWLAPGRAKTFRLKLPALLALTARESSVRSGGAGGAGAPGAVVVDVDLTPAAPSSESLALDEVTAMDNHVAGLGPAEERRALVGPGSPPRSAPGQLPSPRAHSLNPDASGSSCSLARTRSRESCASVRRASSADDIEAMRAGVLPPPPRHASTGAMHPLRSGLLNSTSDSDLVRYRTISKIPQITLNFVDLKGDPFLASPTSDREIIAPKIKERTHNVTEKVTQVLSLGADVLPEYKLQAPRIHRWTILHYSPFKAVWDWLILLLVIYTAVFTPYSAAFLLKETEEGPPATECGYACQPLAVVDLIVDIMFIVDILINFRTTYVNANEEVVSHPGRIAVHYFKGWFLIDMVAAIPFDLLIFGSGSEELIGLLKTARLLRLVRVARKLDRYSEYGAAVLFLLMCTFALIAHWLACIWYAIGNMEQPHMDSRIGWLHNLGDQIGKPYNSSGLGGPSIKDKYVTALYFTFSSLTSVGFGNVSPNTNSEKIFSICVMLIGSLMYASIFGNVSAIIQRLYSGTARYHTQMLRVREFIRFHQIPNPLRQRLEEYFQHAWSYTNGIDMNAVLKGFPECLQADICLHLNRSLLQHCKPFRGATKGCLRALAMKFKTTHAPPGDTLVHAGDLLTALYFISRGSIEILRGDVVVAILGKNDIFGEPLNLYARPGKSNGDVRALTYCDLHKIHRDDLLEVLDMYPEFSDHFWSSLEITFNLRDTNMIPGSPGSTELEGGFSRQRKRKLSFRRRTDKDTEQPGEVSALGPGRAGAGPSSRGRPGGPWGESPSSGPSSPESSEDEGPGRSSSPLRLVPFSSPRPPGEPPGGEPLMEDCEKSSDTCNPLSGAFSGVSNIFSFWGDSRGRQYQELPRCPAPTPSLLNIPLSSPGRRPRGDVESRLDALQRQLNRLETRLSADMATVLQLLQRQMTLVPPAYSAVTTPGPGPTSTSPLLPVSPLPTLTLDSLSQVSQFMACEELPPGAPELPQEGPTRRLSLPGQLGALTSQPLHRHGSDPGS

SMILES | hERG current change (%, negative = inhibition) at 10uM
Cc1cc2c(cc1C)C(c1cc(Br)ccc1F)CC(=O)N2 (stereo not drawn) | 8.78%
CC1=C(C(=O)NC(C)c2ccccc2)C2(CCC(C)CC2)OC1=O (stereo not drawn) | -4.71%
Cc1oc(CN2CCOCC2)cc1C(=O)O | 20.2%
O=C(Nc1ccc2c(c1)OCO2)O[C@@H]1C[C@H]2CCCC(=O)N3CC[C@@H](C1)[C@@H]23 | 11.4%
COc1ccc(NC(=O)NC2CCCc3ccccc32)c(OC)c1 (stereo not drawn) | 13.3%
Cc1[nH]c2ccccc2c1C(=O)COC(=O)c1c(-c2ccccc2Cl)noc1C | -8.21%
Cc1ccccc1-c1noc(CCC(=O)NCc2ccco2)n1 | -2.05%
Cc1cccc2c1cnn2C(=O)Nc1ccc(Br)cc1F | 27.8%
CCCCCC1=NN2C(=O)CC(=O)N=C2S1 | -13.8%
COc1ccccc1N1CCN(CC(=O)Nc2sccc2C#N)CC1 | -13.5%
C=CCNC(=O)c1onc(CSc2ccccc2CC)c1C(=O)O | 3.21%
O=C(Nc1nnc(COc2ccc(Br)cc2)s1)c1ccco1 | 21.9%
CCOc1ccc(NC(=O)CC2C(=O)N(C)C(=S)N2Cc2ccco2)cc1 (stereo not drawn) | -41.8%
CC(=O)O.COc1ccc(OC)c(C2CC(=O)C(C)C(c3cc(OC)ccc3OC)N2)c1 (stereo not drawn) | 15.7%
CCn1cc(C(=O)O)c(=O)c2cc(F)c(N3CCN(C(=S)NC(=O)c4ccc(F)cc4)CC3)cc21 | -2.02%
CC(C)c1ccc(NC(=O)CSC(C)c2nc3ccccc3c(=O)[nH]2)cc1 (stereo not drawn) | -2.85%
COC(=O)c1ccc(OCC(O)Cn2nnc3ccccc32)cc1 (stereo not drawn) | -6.79%
O=S(=O)(c1c(F)cccc1F)N1CCCC2CCCCC21 (stereo not drawn) | -2.32%
CN(C)c1ccc(/C=N/NC(=O)CCC(=O)NCc2ccccc2)cc1 | 11.3%
O=C(Nc1ccccc1C(=O)O)c1ccc2c(c1)C(=O)N(c1cccc([N+](=O)[O-])c1)C2=O | 12%
O=C1COc2ccc(OCc3ccc(F)cc3)cc21 | -6.89%
CCn1ccnc1CNC(=O)c1ccc2oc(CCCc3ccccc3)nc2c1 | -45.4%
COc1cc(/C=N/NC(=O)c2ccc(CSc3nncn3C)cc2)ccc1OCC(=O)N1CC(C)OC(C)C1 (stereo not drawn) | -0.599%
Cc1ccc2c(c1)N(CC(=O)Nc1ncccc1C)C(=O)C(C(C)C)O2 (stereo not drawn) | 14.4%
COc1ccccc1N(CC(=O)NCCc1ccccc1)C(=O)CCC(=O)Nc1ccccn1 | -13.9%
COC(=O)C1=CO[C@@H](C)[C@@H]2CN(CCc3c[nH]c4ccccc34)CC[C@H]12 | -57%
COc1ccc(C2c3[nH]c4ccccc4c3CCN2C(=O)c2ccc(=O)n(C)n2)c(F)c1 (stereo not drawn) | -1.88%

SMILES | hERG current change (%, negative = inhibition) at 10uM
Cc1ccc(CC(=O)NCCS(=O)c2ccc(Cl)cc2)cc1 (stereo not drawn) | -13.5%
O=C1NC(=Nc2cccc(Cl)c2)SC1Cc1cccc(Cl)c1Cl (stereo not drawn) | 13%
O=C1C2C3C=CC(CC3)C2C(=O)N1c1ccc(Cl)cc1 (stereo not drawn) | 16.7%
Cc1ccc(OCc2cc(C(=O)NCc3cn4ccccc4n3)no2)cc1C | -38.7%
COc1ccc(CN2C3CCCC2CC(NC(=O)Nc2ccccc2C)C3)cc1 (stereo not drawn) | -59%
CC1CCCN(C(=O)C2CCN(CC3CC=CCC3)CC2)C1.O=C(O)C(=O)O (stereo not drawn) | -18.7%
CNC(=S)N/N=C/c1cc(C)ccc1C | 20.7%
C/C(Cl)=C\Cn1c(N2CCCCCC2)nc2c1c(=O)n(C)c(=O)n2C | -7.56%
COc1cccc(N(C(=O)c2snc(C(N)=O)c2N)C(C(=O)NCC2CCCO2)c2cccs2)c1 (stereo not drawn) | 7.78%
Cc1ccc(S(=O)(=O)N2CCC(=O)N(CCOCc3cccc(C)c3)CC2)cc1 | -23.1%
O=C(Nc1ccc(C(=O)O)c(O)c1)c1ccccc1 | 8.92%
CCCCCCNC(=O)c1ncn[nH]1 | 29.8%
O=C(NCc1ccccc1)C(c1ccc(O)cc1)N(C(=O)Cn1nnc(-c2cccs2)n1)c1ccc2c(c1)OCCO2 (stereo not drawn) | 1.78%
Cn1c(=O)[nH]c(=O)c2c1nc(N1CCC(Cc3ccccc3)CC1)n2Cc1ccccc1 | 5.25%
Cc1ccc(-c2c(C(=O)N/N=C/c3ccncc3)nnn2-c2nonc2N)cc1 | 15.3%
O=C(Cn1ncc2c3ccccc3n(Cc3ccccc3)c2c1=O)NCc1ccccn1 | 9.2%
COc1ccc(CC(=O)N(C)CC(=O)Nc2ccc(F)cc2)cc1S(=O)(=O)N1CCOCC1 | -7.03%
CCC1SC(N)=NC1=O (stereo not drawn) | 8.1%
COc1ccc(OC)c(N(CC(=O)Nc2cccnc2)S(=O)(=O)c2ccc(OC)c(OC)c2)c1 | -17.9%
C=CCOc1cccc(C2/C(=C(/O)c3ccc(C)cc3)C(=O)C(=O)N2CCN2CCOCC2)c1 (stereo not drawn) | -8.04%
CCOC(=O)N1CCC(NC(=O)CN2C(=O)COc3ccc(C(C)(C)C)cc32)CC1 | -15%
CCCCn1c(SCC(=O)Nc2nnc(C)s2)nc2c1c(=O)n(C)c(=O)n2C | -12.4%
COC(=O)c1ccc(Cn2c(O)c(N=NC(N)=S)c3ccccc32)o1 | 15.9%
COc1ccc(-c2cn(-c3ccc(C)cc3)c(=O)n2CC(=O)Nc2cccc(F)c2)cc1 | 15.6%
COC(=O)C(O)(c1ccc(NC(=S)NC(=O)c2ccc(Cl)cc2Cl)cc1)C(F)(F)F (stereo not drawn) | 5.05%
O=C(c1ccco1)N1N=C(c2ccc(Br)cc2)CC1c1ccco1 (stereo not drawn) | 18.5%
COc1nc(-c2cccc([N+](=O)[O-])c2)nc2ccccc12 | 16.2%
